{"source": "PubChem BioAssay AID743279", "about": "(National Center for Advancing Translational Sciences (NCATS), 2014)", "note": "Out of some 360,000 compounds screened, about 17,000 (4.7%) were called active. The inconclusive results got no clear call from the source; some entries with a clear call stand among them for comparison. Cut-off read from the data, not from the text of the source: active = activity change below about -50%; inconclusive = mostly about -30% to -49%; inactive = weaker than that.", "data": [{"experiment": "qHTS for Inhibitors of Inflammasome Signaling: IL-1-beta AlphaLISA Primary Screen", "details": "THP-1 LPS/ATP IL-1B secretion, 16 h; at 57.5 µM, hits give low values", "method_in_brief": "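Secreted IL-1B measured by AlphaLISA bead assay after 16 h compound exposure of THP-1 cells; compounds (final up to 57.5 uM) added 1 h before LPS (250 ng/mL) and ATP (1.25 mM) stimulation; lower signal means less secretion.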", "values": [{"compound": "O=C(c1ccc(-c2ccccc2)c(F)c1)C1CCCN(CCCn2cccn2)C1", "note": "(configuration not stated); note: % is set by controls: 0 for no effect and ±100 for the full control effect", "activity change": "inconclusive: -36%"}, {"compound": "O=[N+]([O-])c1cc(Cl)ccc1NCCNS(=O)(=O)c1ccccc1", "activity change": "active: -57.5%"}, {"compound": "COCc1cc(C)n(CC(=O)Nc2ccccc2C(=O)OC)c(=O)c1C#N", "activity change": "inactive: 28.5%"}, {"compound": "O=C(NCC1CCCO1)C(c1cccs1)N(Cc1ccccc1Cl)C(=O)c1ccc(-c2ccccc2)[nH]1", "note": "(configuration not stated)", "activity change": "inconclusive: -33.9%"}, {"compound": "CCOc1ccccc1OC(=O)c1cc2ccccc2oc1=O", "activity change": "inactive: -1.76%"}, {"compound": "Cc1cccc(NC(=O)C(C)Sc2nc3ccccc3c(=O)n2CCCN2CCOCC2)c1", "note": "(configuration not stated)", "activity change": "inconclusive: -41.8%"}, {"compound": "Cc1nn(CCCC(=O)NCc2ccccc2)c(=O)c2nn(-c3ccccc3)c(C)c12", "activity change": "inconclusive: -45.2%"}, {"compound": "Cc1cc(C(F)(F)F)n(-c2nc(C(=O)N/N=C/c3ccc(F)cc3)cs2)n1", "activity change": "inactive: -24.7%"}, {"compound": "O=C1CCN(S(=O)(=O)c2cccs2)c2ccc(C(F)(F)F)cc2N1", "activity change": "inconclusive: -35.9%"}, {"compound": "Cc1ccc(C)c(S(=O)(=O)N2CCC(c3nc4c(nnn4Cc4ccc5c(c4)OCCO5)c(=O)[nH]3)CC2)c1", "activity change": "inconclusive: -35.8%"}, {"compound": "Cc1ccc2nc(N3CCN(CCO)CC3)nc(-c3ccccc3)c2c1", "activity change": "inconclusive: -42.9%"}, {"compound": "CCC(C)Sc1ccc(-c2nc3cnccn3c2NC2CCCCC2)cc1", "note": "(configuration not stated)", "activity change": "inconclusive: -31.2%"}, {"compound": "COc1ccc(Cl)cc1NC(=O)CN1CCN(S(=O)(=O)c2ccc(F)cc2)CC1", "activity change": "inactive: -3.59%"}, {"compound": "Cc1ccc2sc(N(CCCN(C)C)C(=O)c3ccc(S(=O)(=O)N4CCCCCC4)cc3)nc2c1C", "activity change": "inconclusive: -44.7%"}, {"compound": "N#Cc1ccc(CSc2nnc(-c3ccccn3)n2-c2ccc(Cl)cc2)cc1", "activity change": "inconclusive: -41.4%"}, {"compound": "N#Cc1ccc(Cl)cc1NC(=O)CNc1cccc(S(=O)(=O)N2CCCC2)c1", "activity change": "inconclusive: -41.7%"}, {"compound": "COCC(C)OC(=O)C(C#N)c1nc2ccccc2nc1N1CCN(Cc2ccccc2)CC1", "note": "(configuration not stated)", "activity change": "active: -55.9%"}, {"compound": "COc1ccc2oc(C(=O)Nc3ccc(S(=O)(=O)N(C)C4CCN(C)CC4)cc3)c(C)c2c1", "activity change": "inconclusive: -37.6%"}, {"compound": "O=C(Nc1ccccc1)C1Cc2c(-c3ccccc3Oc3ccccc3)ccnc2O1", "note": "(configuration not stated)", "activity change": "active: -56.8%"}, {"compound": "O=c1c(-c2cccnc2)nc2ccccc2n1C(c1ccccn1)c1nc2ccccc2[nH]1", "note": "(configuration not stated)", "activity change": "inconclusive: -34.8%"}, {"compound": "CCOc1ccc(/C=N/NC(=O)Cc2csc(Nc3cccc(C(F)(F)F)c3)n2)c(OCC)c1", "activity change": "inconclusive: -49.5%"}, {"compound": "CCc1ccc2[nH]cc(S(=O)(=O)c3ccc(C)c(C)c3)c(=O)c2c1", "activity change": "inactive: 0.871%"}, {"compound": "Cc1cccc(C)c1NC(=O)CS(=O)CC(=O)NCCCc1ccccc1", "note": "(configuration not stated)", "activity change": "inconclusive: -46.5%"}, {"compound": "Cc1nc(N)c(Cc2ccccc2F)c(N)n1", "activity change": "inactive: -19.2%"}, {"compound": "Cc1cc(C(F)(F)F)nn1Cc1n[nH]c(=S)n1Cc1ccccc1", "activity change": "inconclusive: -32.3%"}, {"compound": "O=C(CCc1ccc(S(=O)(=O)N2CCOCC2)cc1)OCC(=O)c1ccccc1F", "activity change": "inactive: 0%"}, {"compound": "Cc1ccc(/C=N/NC(=O)Cn2nnc(N)n2)cc1", "activity change": "inconclusive: -38.1%"}, {"compound": "COc1ccc(C(=O)NNC2=NCCCCC2)cc1", "activity change": "inconclusive: -45.8%"}, {"compound": "Cn1c(=O)c2c(nc(SCC(=O)Nc3ccccc3N3CCCCC3)n2C)n(C)c1=O", "activity change": "active: -57.3%"}, {"compound": "CCC(=O)Nc1nc(-c2ccc3c(c2)OCCO3)cs1", "activity change": "inconclusive: -45.6%"}, {"compound": "Cc1cccc(COC[C@H](Cc2ccccc2)N2CCN(C(=O)c3cc(Cl)cc(Cl)c3)CCC2=O)c1", "activity change": "inconclusive: -32.9%"}, {"compound": "Cc1ccc(C)c(NC(=O)c2ccccc2NC(=O)C2CCCO2)c1", "note": "(configuration not stated)", "activity change": "inactive: -13.2%"}, {"compound": "CC(=O)COc1ccc2c(C)c(C)c(=O)oc2c1", "activity change": "inconclusive: -40.3%"}, {"compound": "CCc1nc2ccc(C(=O)NCCCN3CCCC3=O)cn2c1N(C)C(=O)C1CCCCC1", "activity change": "inactive: -3.1%"}, {"compound": "CCc1nn(CC(=O)N2CCN(CC)CC2)c(=O)c2cccn12", "activity change": "inconclusive: -32.6%"}, {"compound": "CCc1ccc(-c2csc3ncn(CC(=O)N4CCOCC4)c(=O)c23)cc1", "activity change": "inconclusive: -34.3%"}, {"compound": "CC(C)COP(=O)(OCC(C)C)C(Nc1ccccc1)c1ccc(F)cc1", "note": "(configuration not stated)", "activity change": "inconclusive: -42.5%"}, {"compound": "CC(C)(C)NC(=O)C(c1cccs1)N(CC1CCCO1)C(=O)c1ccc(-c2ccccc2)[nH]1", "note": "(configuration not stated)", "activity change": "inconclusive: -45%"}, {"compound": "C=C(c1ccccc1)c1ccccc1N", "activity change": "inactive: 8.86%"}, {"compound": "COc1ccccc1/C=C/CN1CCCC(CCC(=O)NCc2ccccc2F)C1", "note": "(configuration not stated)", "activity change": "inconclusive: -49.8%"}, {"compound": "O=C(Nc1ccc(Cl)cc1)N1CCc2ccccc2C1", "activity change": "active: -74.4%"}, {"compound": "O=[N+]([O-])c1cccc(C=NN2CCCCCC2)c1", "activity change": "inconclusive: -31.6%"}, {"compound": "Fc1ccccc1N=C1Nc2cccc3cccc1c23", "activity change": "inconclusive: -37.3%"}, {"compound": "COc1ccc(C(=S)Nc2ccc(C)cc2)cc1", "activity change": "inactive: -10.4%"}, {"compound": "Cc1ccc(COC(=O)c2cccc(S(=O)(=O)N3CCCCCC3)c2)cc1", "activity change": "inactive: 20.5%"}, {"compound": "COc1cc(OC)nc(Nc2nc(C(N)COCc3ccccc3)cs2)n1", "note": "(configuration not stated)", "activity change": "inconclusive: -46.3%"}, {"compound": "c1cncc(-c2noc(CC3CCCCC3)n2)c1", "activity change": "inconclusive: -31%"}, {"compound": "Cc1ccc(NC(=O)c2ccc(NCCCN3CCC(C)CC3)c([N+](=O)[O-])c2)c(C)c1", "activity change": "inconclusive: -37.5%"}, {"compound": "Cc1ccc(C)c(OCC(=O)N/N=C/c2ccc(N3CCOCC3)cc2)c1", "activity change": "inactive: -7.93%"}, {"compound": "Cc1[nH]c2ccccc2c1N=Nc1ccccc1C(=O)O", "activity change": "inactive: 6.94%"}, {"compound": "COc1ccccc1CCC(=O)Nc1ccc2c(c1)CN(Cc1ccc(C)o1)CC2", "activity change": "inconclusive: -40.9%"}, {"compound": "CCOc1ccc(C(=O)N/N=C(\\c2ccccc2)c2ccccn2)cc1", "activity change": "active: -99.7%"}, {"compound": "CC1(C(=O)Nc2ccc(Cl)c(Cl)c2)CCN1Cc1ccccc1OC(F)F", "note": "(configuration not stated)", "activity change": "inconclusive: -47.4%"}, {"compound": "Cc1cc(/C=C(\\C#N)C(=O)Nc2ccc(Cl)cc2)c(C)n1-c1ccc(N2CCOCC2)c([N+](=O)[O-])c1", "activity change": "inconclusive: -35.7%"}, {"compound": "CCC[C@H]1CC(=O)C=C(c2ccc(OC)cc2)ON1C(=O)OC(C)(C)C", "activity change": "inconclusive: -30%"}, {"compound": "O=C(COc1ccccc1F)Nc1ccc2[nH]c(=O)[nH]c2c1", "activity change": "inactive: -0.26%"}, {"compound": "CCN(CCNC(=O)CN1CCN(Cc2ccc(Cl)cc2)C1=O)c1ccccc1", "activity change": "inactive: -10.5%"}, {"compound": "CCOc1ccc(CNC(=O)c2cc3oc4ccccc4c3n2C)cc1", "activity change": "inconclusive: -41.8%"}, {"compound": "CCN(CC)CCCNC(=O)c1cc2nc3c(c(C(F)(F)F)n2n1)CCc1ccccc1-3", "activity change": "inconclusive: -33.2%"}, {"compound": "CCOC(=O)c1c(C)[nH]c(N=Nc2ccccc2C)c1C", "activity change": "inconclusive: -43.4%"}, {"compound": "CC1=NNC(=O)C1C(c1ccccc1)C(C#N)C#N", "note": "(configuration not stated)", "activity change": "inconclusive: -34%"}, {"compound": "COc1cccc(NC(=O)C2(C)CCN2C(=O)C2CCCCC2)c1", "note": "(configuration not stated)", "activity change": "inactive: 46.5%"}, {"compound": "CC1(C(=O)NS(=O)(=O)c2cccc(Cl)c2)CCN1C(=O)Cc1cc(F)ccc1F", "note": "(configuration not stated)", "activity change": "inactive: 37%"}, {"compound": "COc1ccccc1C(=O)Nc1ccc(-c2nnn(CC(=O)N3CCOCC3)n2)cc1", "activity change": "inconclusive: -47%"}, {"compound": "CC(C)CNC(=O)CSc1ccc(Cl)cc1", "activity change": "inactive: 14.9%"}, {"compound": "c1ccc2[nH]c(-c3ccnc4ccccc34)nc2c1", "activity change": "inconclusive: -32.6%"}, {"compound": "O=C(Nc1ccc2nn(-c3ccccc3)nc2c1)c1cccnc1", "activity change": "inconclusive: -36.2%"}, {"compound": "O=C(NCC(c1ccco1)N1CCCC1)c1ccc(Cl)c(S(=O)(=O)N2CCc3ccccc32)c1", "note": "(configuration not stated)", "activity change": "active: -54.9%"}, {"compound": "COc1cc2nc(SCC(=O)NCc3ccco3)n(Cc3ccc(Cl)cc3)c(=O)c2cc1OC", "activity change": "inactive: 39%"}, {"compound": "CCSc1nc2c(c(=O)[nH]1)C(c1ccccn1)C1=C(CC(C)(C)CC1=O)N2", "note": "(configuration not stated)", "activity change": "inactive: 0.222%"}, {"compound": "CCn1c2ccccc2c2cc(NC(=O)CSc3nnc(-c4ccc(OC)c(OC)c4)n3N)ccc21", "activity change": "inactive: 24.9%"}, {"compound": "COc1cccc(CC2(CO)CCCN(Cc3cnn(-c4ccccc4)c3)C2)c1", "note": "(configuration not stated)", "activity change": "inconclusive: -49.2%"}, {"compound": "O=C(Nc1ccc(Cc2ccncc2)cc1)c1ccc(S(=O)(=O)N2CCOCC2)cc1", "activity change": "inactive: -18.9%"}, {"compound": "CCCCn1c(SCc2ccc(Cl)cc2)nc2c1c(=O)[nH]c(=O)n2C", "activity change": "inactive: 0.796%"}, {"compound": "CC(Oc1ccccc1)C(=O)Nc1nnc(S(=O)(=O)Nc2ccccc2)s1", "note": "(configuration not stated)", "activity change": "inactive: -6.5%"}, {"compound": "COc1ccc(/C=C2\\CCc3ccccc3C2=O)cc1Cn1cccn1", "activity change": "inconclusive: -49.2%"}, {"compound": "Cc1ccc(NC(=O)C(=O)NCc2ccco2)c(C)c1", "activity change": "inconclusive: -33.7%"}, {"compound": "Cc1csc(NC(=O)CSc2nsc(SCC(=O)Nc3nc(C)cs3)c2C#N)n1", "activity change": "inactive: -8.88%"}, {"compound": "CC(=O)CCc1c(C)nc2ccc(C)cc2c1Cl", "activity change": "inconclusive: -40%"}, {"compound": "O=c1c2cc(F)ccc2sn1-c1ccccc1Cl", "activity change": "active: -105%"}, {"compound": "COc1ccc(C=O)c2[nH]c3c(Cl)ncnc3c12", "activity change": "inconclusive: -48.6%"}, {"compound": "O=[N+]([O-])c1cc([N+](=O)[O-])c2n[nH]c(-c3ccccc3)c2c1", "activity change": "inactive: -1.99%"}, {"compound": "COc1ccccc1NC(=O)c1ccccc1-c1ccccc1C(=O)O", "activity change": "inactive: 1.09%"}, {"compound": "COc1ccccc1OCC(=O)Nc1cccc(C(=O)N2CCOCC2)c1", "activity change": "inactive: 7.83%"}, {"compound": "COc1cccc(CNC(=O)C2CCN(S(=O)(=O)c3ccc4c(c3)NC(=O)C(C)S4)CC2)c1", "note": "(configuration not stated)", "activity change": "inconclusive: -39.2%"}, {"compound": "CC(Sc1nc2ccccc2c(=O)n1CC1CCCO1)C(=O)N(C)Cc1ccccc1", "note": "(configuration not stated)", "activity change": "inactive: -2.14%"}, {"compound": "COc1nc(N(C)C)nc(N(C#N)CCOC(C)=O)n1", "activity change": "inconclusive: -34.3%"}]}]}
